59 molecules from PubChem BioAssay AID463173 (ICCB-Longwood Screening Facility, Harvard Medical School, 2010) can be followed below.

Screen size: about 52,000 compounds; about 4,300 (8.3%) were called active. No stated cut-off is given here; in the data, active means survival mostly below about 52% (no sharp cut-off); inactive means mostly above about 56%. The list shows a part of the results.

The test system of the assay is DeltatarO mutant. The experiment in a line: growth inhibition of S. aureus wild type versus tarO mutant, primary screen, teichoic acid synthesis inhibitors, RN4220, OD600 (AID 463173). The note with it: OD600, 18 h, hits give low values, screened at 18.75 µg/mL (by protocol).
For the molecule `CCOC(=O)c1c(NC(=O)COc2cc(C)ccc2C(C)C)sc2c1CCCC2`, the survival was inactive: 50%.
For `Cc1c(C=Nc2ccc(SC#N)c(Cl)c2)c(O)[nH]c(=O)c1C#N` the value was inactive: 68%.
Under `Cc1cccc(NC(=O)c2c(NC(=O)c3cccs3)sc3c2CCC(C)C3)c1` (centres undefined) stands inactive: 60%; under `COc1cccc(CN2CCc3nc(Nc4ccc5c(c4)OCCO5)ncc3C2)c1OC`, inactive: 75%; under `COc1ccccc1N1CCN(C(CNC(=O)C(=O)NCCN(C)C)c2cccnc2)CC1` (centres undefined), inactive: 69%.
For `S=C(NCc1ccco1)Nc1ccccc1` the value was inactive: 108%.
As for `COc1ccc(OCCn2cnc3ccccc32)cc1`, the survival was inactive: 85%.
For `CCCOc1ccc(C2C(=O)N(C3CCCCC3)CC(=O)N2CCc2ccccc2)cc1OC` (centres undefined) the value was inactive: 86%; for `Clc1cccc(-n2ncc3c(NCCc4ccccc4)ncnc32)c1`, inactive: 94%.
On to `CCOC(=O)c1cccc(NS(=O)(=O)c2cc(-c3cnc(C)o3)ccc2OC)c1`, for which the survival is inactive: 94%.
On to `CN(C)C(=O)c1ccc(NC(=O)Cn2nc(-c3ccccc3)c3ccccc3c2=O)cc1`, for which the survival was active: 39%.
Under `CCc1ccc(C2=C(C)C(N3CCC(C(=O)Nc4cccc(OC)c4)CC3)=NS2(=O)=O)cc1` stands inactive: 115%; under `CCOc1ccc(NC(=O)CSc2nc(-c3cccs3)cc(C(F)(F)F)c2C#N)cc1`, inactive: 78%.
Under `Oc1ccc(/C=C/c2nc(-c3ccccc3O)n(-c3ccccc3)n2)c(O)c1` stands active: -3%; under `Cc1cccc(NC(=O)CSc2nc(=O)n(Cc3ccncc3)c3c2CCC3)c1C`, inactive: 85%.
Under `N#CCCn1c(=O)n(CCC#N)c(=O)n(CCC#N)c1=O` stands inactive: 79%; under `N#CCN(CC#N)C(=O)Cc1cccs1`, inactive: 102%; under `O=C(NCc1ccccc1Cl)c1ccc2c(c1)nnn2C1CCCC1`, inactive: 77%.
As to `CCOc1ccc(NC(=O)CN2CCN(CC(=O)Nc3ccc(N(CC)CC)cc3)CC2)cc1`, the survival was inactive: 85%.
Take `COc1cc(NS(=O)(=O)c2ccc3[nH]c(=O)[nH]c3c2)cc(OC)c1`: the survival was inactive: 79%.
`COc1cccc2c1Oc1ncccc1N(c1ccc(C(=O)NCc3ccccc3C)s1)C2`: the survival is inactive: 84%.
Take `NC(=S)/N=C1/CCN(c2ccccc2)N1`: the survival was inactive: 89%.
With `COc1ccc(CCNC(=O)c2ccc3c(c2)sc2nc(-c4ccc(C)cc4)cn23)cc1OC`, the survival was inactive: 81%.
Take `COc1ccccc1NC(=O)CSC1=Nc2ccccc2C2=NC(CC(=O)NCCc3ccccc3)C(=O)N12` (centres undefined): the survival was inactive: 85%.
For `COc1ccc(-c2noc(=O)n2CCCC#N)cc1OC` the value was inactive: 105%; for `CCc1ccccc1NC(=O)Cn1nnc(-c2nc(-c3ccncc3)no2)c1N`, inactive: 86%.
As to `CCn1c(SCc2cccc(C(=O)O)c2)nnc1-c1ccco1`, the survival is inactive: 93%.
For `Cc1ccc(NC(=O)C2CCN(S(=O)(=O)c3ccc4c(c3)CCCC(=O)N4)CC2)c(Cl)c1` the value was inactive: 83%; for `CC1=Nc2cc(C(=O)NC3CCCCC3)ccc2Sc2ccc(Cl)cc21`, inactive: 85%.
`COc1ccc(NC(=O)c2coc(=O)c3ccccc23)cc1OC`: the survival was inactive: 125%.
Regarding `OCCNCC(O)Cn1ccc2ccccc21` (centres undefined), the survival was inactive: 73%.
As for `O=C(CCCc1ccccc1)NC1CC(=O)N(c2ccc(Cl)cc2)C1` (centres undefined), the survival was inactive: 71%.
For `CC1=C(c2ccc(C(C)C)cc2)S(=O)(=O)N=C1N1CCN(c2ccc(F)cc2)CC1` the value was inactive: 74%.
For `Cc1ccc(OCC(=O)Nc2nnc(SCc3cc(=O)c4ccccc4[nH]3)s2)cc1C` the value was inactive: 94%; for `COc1ccc(CNC(=O)C2CCCN2C(=O)NCc2ccccc2)cc1` (centres undefined), inactive: 88%.
Take `COCCn1c(C)cc(O)c(C(c2ccccc2)N2CCN(CCO)CC2)c1=O` (centres undefined): the survival was active: 32%.
Under `COc1cc2c(cc1OC)C(COc1ccc3c(C)cc(=O)oc3c1)N(C(=O)c1cccc(OC)c1OC)CC2` (centres undefined) stands inactive: 68%; under `CC(=O)N1c2ccc(S(=O)(=O)N3CCCCCC3)cc2CC1C(=O)NCc1ccccc1` (centres undefined), inactive: 88%.
Regarding `COc1ccc(C2C3C(=O)N(c4ccccc4)C(=O)C3ON2c2ccccc2)cc1` (centres undefined), the survival is inactive: 106%.
Under `O=C(Nc1ccc2oc(-c3ccccc3)nc2c1)c1ccc2ccccc2c1` stands inactive: 74%; under `COc1ccc(-c2nc3scc(CCNS(=O)(=O)c4cc(F)ccc4OC)n3n2)cc1OC`, inactive: 66%.
Under `NS(=O)(=O)c1cccc(C(=O)O)c1` stands inactive: 82%.
As for `CN(C(=O)CSc1nnc(-c2ccc([N+](=O)[O-])cc2)o1)C1CCCCC1`, the survival was inactive: 83%.
Under `Cc1ccc(CN2CCSc3ccc(C(=O)Nc4cc(C)cc(C)c4)cc32)cc1` stands inactive: 87%; under `CC(=O)N1CCc2c(sc3nc(SCC(N)=O)n(-c4ccc(F)c(Cl)c4)c(=O)c23)C1`, inactive: 75%; under `COc1ccc2c(c1)c1c(c(=O)n(Cc3ccccc3)c(=O)n1CC(=O)Nc1cc(C)cc(C)c1)n2C`, inactive: 72%.
`CCOc1ccc(NC(=O)N2CCC(CN3CCCCCC3)CC2)cc1`: the survival was inactive: 115%.
Under `Cc1cccc(N2CCN(C(=O)c3ccc4c(c3)c(C)c(C)n4C)CC2)c1C` stands inactive: 80%; under `Cc1cc(C)cc(NC(=O)CSc2oc(-c3ccco3)nc2S(=O)(=O)c2ccccc2)c1`, inactive: 65%; under `O=C(Nc1ccccc1OCc1cc(=O)n2ccccc2n1)c1cccc(Br)c1`, inactive: 74%.
Regarding `Cc1ccc2c(n1)sc1c(=O)n(-c3cccc(C(F)(F)F)c3)nnc12`, the survival was inactive: 102%.
Under `Clc1ccc(OCc2nc(-c3ccc(-n4cccc4)cc3)no2)cc1` stands inactive: 163%; under `CCOC(=O)c1sc2nc(C)n(CC(=O)Nc3cccc(Cl)c3)c(=O)c2c1C`, inactive: 71%; under `Cc1ccc(C)c(CSC2=NC(C)(C)Nc3ccccc32)c1`, inactive: 80%.
Take `COc1ccc(CN(C)S(=O)(=O)c2nnc(NC(=O)C(C)C)s2)cc1OC`: the survival was inactive: 55%.
Under `CC(=O)c1cccc(NC(=O)CSc2nnc3ccc(-c4ccc(Cl)cc4)nn23)c1` stands inactive: 113%; under `COc1cc(-c2nc3ccccn3c2NC2CCCC2)ccc1O`, inactive: 110%.
Under `CC(C)(C)c1cc(CN2CCOCC2)c(C(=O)O)o1` stands inactive: 92%; under `COc1ccccc1NC(=O)C1=C(C)Nc2nc(SCc3ccccc3F)nn2C1c1cccnc1` (centres undefined), inactive: 67%.
